{"source": "the supplement of paper PMC12217912", "parents": {"B1": {"name": "TEV protease; numbered along this chain (parent)", "chain": "MGESLFKGPRDYNPISSSICHLTNESDGHTTSLYGIGFGPFIITNKHLFRRNNGTLVVQSLHGVFKVKDTTTLQQHLVDGRDMIIIRMPKDFPPFPQKLKFREPQREERICLVTTNFQTKSMSSMVSDTSCTFPSGDGIFWKHWIQTKDGQCGSPLVSTRDGFIVGIHSASNFTNTNNYFTSVPKNFMELLTNQEAQQWVSGWRLNADSVLWGGHKVFMVKPEEPFQPVKEATQL"}}, "variants_of": "B1", "test": "raw area under fraction-flipped curve 0-4 h after induction (AUC4h, not background-subtracted), DNA-recorder readout of cleavage of the substrate (dimensionless); higher = more cleavage of the substrate by the protease variant", "conditions": "temperature: 34 °C; time window: 0-4 h after rhamnose induction", "experimental": "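In vivo DNA recorder in E. coli TOP10(DE3) ΔrhaA at 34 °C. Each TEVp single-site mutant (parent TEVp 0) is paired with a single-site variant of the 7-mer TEVs (canonical ENLYFQ|S). The substrate sits between flexible linkers in a Bxb1-sfGFP-TEVs-SsrA fusion, so cleavage stabilises Bxb1 and speeds flipping of a recombination array, read by NGS. The value is the raw area under the fraction-flipped curve over 0-4 h after rhamnose induction (AUC4h), with ≥20 reads per time point. It is not background-subtracted; inactive controls average about 0.047.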", "note": "This is one part of the list. Sequences were assembled here from the parent chain. Inactive controls read about 0.05.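 Note: Bxb1 expression induced with 0.2% (w/v) L-rhamnose at OD600 near 0.5, cultures sampled hourly, flipped fraction per protease–substrate barcode pair counted by paired-end Illumina sequencing.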", "data": [{"variant": "MGESLFKGPRDYNPISSSICHLTNESDGHTTSLYGIGFGPFIITNKHLFRRNNGTLVVQSLHGVFKVKDTTTLQQHLVDGRDMIIIRMPKDFPPFPQKLKFREPQREERICLVTTNFQTKSMSSMVSDTSCTFPSGDGIFWKHWIQTKDGQCGSPLVSTRDGFIVGIHSACNFTNTNNYFTSVPKNFMELLTNQEAQQWVSGWRLNADSVLWGGHKVFMVKPEEPFQPVKEATQL", "note": "[S171C]", "values": [{"measurement": "area with substrate EALYFQS", "value": 0.0871}, {"measurement": "area with substrate ECLYFQS", "value": 0.0726}, {"measurement": "area with substrate EELYFQS", "value": 0.0805}, {"measurement": "area with substrate EHLYFQS", "value": 0.0796}, {"measurement": "area with substrate EILYFQS", "value": 0.0795}, {"measurement": "area with substrate EKLYFQS", "value": 0.0984}, {"measurement": "area with substrate EMLYFQS", "value": 0.102}, {"measurement": "area with substrate EPLYFQS", "value": 0.0668}, {"measurement": "area with substrate EVLYFQS", "value": 0.0982}, {"measurement": "area with substrate EWLYFQS", "value": 0.0479}, {"measurement": "area with substrate EYLYFQS", "value": 0.0882}]}, {"variant": "MGESLFKGPRDYNPISSSICHLTNESDGHTTSLYGIGFGPFIITNKHLFRRNNGTLVVQSLHGVFKVKDTTTLQQHLVDGRDMIIIRMPKDFPPFPQKLKFREPQREERICLVTTNFQTKSMSSMVSDTSCTFPSGDGIFWKHWIQTKDGQCGSPLVSTRDGFIVGIHSAHNFTNTNNYFTSVPKNFMELLTNQEAQQWVSGWRLNADSVLWGGHKVFMVKPEEPFQPVKEATQL", "note": "[S171H]", "values": [{"measurement": "area with substrate EALYFQS", "value": 0.0607}, {"measurement": "area with substrate EDLYFQS", "value": 0.069}, {"measurement": "area with substrate EGLYFQS", "value": 0.0616}, {"measurement": "area with substrate EHLYFQS", "value": 0.0522}, {"measurement": "area with substrate EILYFQS", "value": 0.0669}, {"measurement": "area with substrate EKLYFQS", "value": 0.077}, {"measurement": "area with substrate EMLYFQS", "value": 0.0521}, {"measurement": "area with substrate EQLYFQS", "value": 0.0602}, {"measurement": "area with substrate ESLYFQS", "value": 0.0684}, {"measurement": "area with substrate EVLYFQS", "value": 0.068}, {"measurement": "area with substrate EWLYFQS", "value": 0.0611}]}, {"variant": "MGESLFKGPRDYNPISSSICHLTNESDGHTTSLYGIGFGPFIITNKHLFRRNNGTLVVQSLHGVFKVKDTTTLQQHLVDGRDMIIIRMPKDFPPFPQKLKFREPQREERICLVTTNFQTKSMSSMVSDTSCTFPSGDGIFWKHWIQTKDGQCGSPLVSTRDGFIVGIHSASNETNTNNYFTSVPKNFMELLTNQEAQQWVSGWRLNADSVLWGGHKVFMVKPEEPFQPVKEATQL", "note": "[F173E]", "values": [{"measurement": "area with substrate EALYFQS", "value": 0.0848}, {"measurement": "area with substrate ECLYFQS", "value": 0.0697}, {"measurement": "area with substrate EELYFQS", "value": 0.0995}, {"measurement": "area with substrate EFLYFQS", "value": 0.0797}, {"measurement": "area with substrate EGLYFQS", "value": 0.0563}, {"measurement": "area with substrate EKLYFQS", "value": 0.0912}, {"measurement": "area with substrate EPLYFQS", "value": 0.103}, {"measurement": "area with substrate ERLYFQS", "value": 0.0934}, {"measurement": "area with substrate EVLYFQS", "value": 0.147}, {"measurement": "area with substrate EYLYFQS", "value": 0.075}]}, {"variant": "MGESLFKGPRDYNPISSSICHLTNESDGHTTSLYGIGFGPFIITNKHLFRRNNGTLVVQSLHGVFKVKDTTTLQQHLVDGRDMIIIRMPKDFPPFPQKLKFREPQREERICLVTTNFQTKSMSSMVSDTSCTFPSGDGIFWKHWIQTKDGQCGSPLVSTRDGFIVGIHSASNHTNTNNYFTSVPKNFMELLTNQEAQQWVSGWRLNADSVLWGGHKVFMVKPEEPFQPVKEATQL", "note": "[F173H]", "values": [{"measurement": "area with substrate EALYFQS", "value": 0.0802}, {"measurement": "area with substrate ECLYFQS", "value": 0.141}, {"measurement": "area with substrate EELYFQS", "value": 0.121}, {"measurement": "area with substrate EGLYFQS", "value": 0.0614}, {"measurement": "area with substrate EILYFQS", "value": 0.0863}, {"measurement": "area with substrate EKLYFQS", "value": 0.0724}, {"measurement": "area with substrate ELLYFQS", "value": 0.0748}, {"measurement": "area with substrate EMLYFQS", "value": 0.0738}, {"measurement": "area with substrate EQLYFQS", "value": 0.11}, {"measurement": "area with substrate ESLYFQS", "value": 0.117}, {"measurement": "area with substrate EVLYFQS", "value": 0.0796}, {"measurement": "area with substrate EWLYFQS", "value": 0.0638}, {"measurement": "area with substrate EYLYFQS", "value": 0.101}]}, {"variant": "MGESLFKGPRDYNPISSSICHLTNESDGHTTSLYGIGFGPFIITNKHLFRRNNGTLVVQSLHGVFKVKDTTTLQQHLVDGRDMIIIRMPKDFPPFPQKLKFREPQREERICLVTTNFQTKSMSSMVSDTSCTFPSGDGIFWKHWIQTKDGQCGSPLVSTRDGFIVGIHSASNFKNTNNYFTSVPKNFMELLTNQEAQQWVSGWRLNADSVLWGGHKVFMVKPEEPFQPVKEATQL", "note": "[T174K]", "values": [{"measurement": "area with substrate EALYFQS", "value": 0.0952}, {"measurement": "area with substrate EDLYFQS", "value": 0.184}, {"measurement": "area with substrate EELYFQS", "value": 0.138}, {"measurement": "area with substrate EFLYFQS", "value": 0.102}, {"measurement": "area with substrate EILYFQS", "value": 0.0843}, {"measurement": "area with substrate EQLYFQS", "value": 0.076}, {"measurement": "area with substrate ERLYFQS", "value": 0.0943}, {"measurement": "area with substrate ESLYFQS", "value": 0.0942}, {"measurement": "area with substrate EWLYFQS", "value": 0.0748}]}, {"variant": "MGESLFKGPRDYNPISSSICHLTNESDGHTTSLYGIGFGPFIITNKHLFRRNNGTLVVQSLHGVFKVKDTTTLQQHLVDGRDMIIIRMPKDFPPFPQKLKFREPQREERICLVTTNFQTKSMSSMVSDTSCTFPSGDGIFWKHWIQTKDGQCGSPLVSTRDGFIVGIHSASNFSNTNNYFTSVPKNFMELLTNQEAQQWVSGWRLNADSVLWGGHKVFMVKPEEPFQPVKEATQL", "note": "[T174S]", "values": [{"measurement": "area with substrate EALYFQS", "value": 0.171}, {"measurement": "area with substrate ECLYFQS", "value": 0.125}, {"measurement": "area with substrate EGLYFQS", "value": 0.138}, {"measurement": "area with substrate ELLYFQS", "value": 0.099}]}, {"variant": "MGESLFKGPRDYNPISSSICHLTNESDGHTTSLYGIGFGPFIITNKHLFRRNNGTLVVQSLHGVFKVKDTTTLQQHLVDGRDMIIIRMPKDFPPFPQKLKFREPQREERICLVTTNFQTKSMSSMVSDTSCTFPSGDGIFWKHWIQTKDGQCGSPLVSTRDGFIVGIHSASNFTGTNNYFTSVPKNFMELLTNQEAQQWVSGWRLNADSVLWGGHKVFMVKPEEPFQPVKEATQL", "note": "[N175G]", "values": [{"measurement": "area with substrate EALYFQS", "value": 0.13}, {"measurement": "area with substrate EDLYFQS", "value": 0.105}, {"measurement": "area with substrate EHLYFQS", "value": 0.101}, {"measurement": "area with substrate EILYFQS", "value": 0.0988}, {"measurement": "area with substrate EKLYFQS", "value": 0.0697}, {"measurement": "area with substrate EPLYFQS", "value": 0.141}, {"measurement": "area with substrate EQLYFQS", "value": 0.123}, {"measurement": "area with substrate ERLYFQS", "value": 0.0981}, {"measurement": "area with substrate ESLYFQS", "value": 0.103}, {"measurement": "area with substrate EVLYFQS", "value": 0.106}, {"measurement": "area with substrate EWLYFQS", "value": 0.085}, {"measurement": "area with substrate EYLYFQS", "value": 0.103}]}, {"variant": "MGESLFKGPRDYNPISSSICHLTNESDGHTTSLYGIGFGPFIITNKHLFRRNNGTLVVQSLHGVFKVKDTTTLQQHLVDGRDMIIIRMPKDFPPFPQKLKFREPQREERICLVTTNFQTKSMSSMVSDTSCTFPSGDGIFWKHWIQTKDGQCGSPLVSTRDGFIVGIHSASNFTLTNNYFTSVPKNFMELLTNQEAQQWVSGWRLNADSVLWGGHKVFMVKPEEPFQPVKEATQL", "note": "[N175L]", "values": [{"measurement": "area with substrate EALYFQS", "value": 0.0924}, {"measurement": "area with substrate EDLYFQS", "value": 0.0841}, {"measurement": "area with substrate EELYFQS", "value": 0.0805}, {"measurement": "area with substrate EGLYFQS", "value": 0.0735}, {"measurement": "area with substrate EHLYFQS", "value": 0.0819}, {"measurement": "area with substrate EILYFQS", "value": 0.0734}, {"measurement": "area with substrate EKLYFQS", "value": 0.0623}, {"measurement": "area with substrate ELLYFQS", "value": 0.0678}, {"measurement": "area with substrate EMLYFQS", "value": 0.103}, {"measurement": "area with substrate EPLYFQS", "value": 0.0834}, {"measurement": "area with substrate EQLYFQS", "value": 0.0941}, {"measurement": "area with substrate ERLYFQS", "value": 0.059}, {"measurement": "area with substrate ESLYFQS", "value": 0.0909}, {"measurement": "area with substrate EVLYFQS", "value": 0.0706}, {"measurement": "area with substrate EWLYFQS", "value": 0.0598}, {"measurement": "area with substrate EYLYFQS", "value": 0.0883}]}, {"variant": "MGESLFKGPRDYNPISSSICHLTNESDGHTTSLYGIGFGPFIITNKHLFRRNNGTLVVQSLHGVFKVKDTTTLQQHLVDGRDMIIIRMPKDFPPFPQKLKFREPQREERICLVTTNFQTKSMSSMVSDTSCTFPSGDGIFWKHWIQTKDGQCGSPLVSTRDGFIVGIHSASNFTNTCNYFTSVPKNFMELLTNQEAQQWVSGWRLNADSVLWGGHKVFMVKPEEPFQPVKEATQL", "note": "[N177C]", "values": [{"measurement": "area with substrate EALYFQS", "value": 0.23}, {"measurement": "area with substrate ECLYFQS", "value": 0.151}, {"measurement": "area with substrate EFLYFQS", "value": 0.151}, {"measurement": "area with substrate EGLYFQS", "value": 0.14}, {"measurement": "area with substrate EILYFQS", "value": 0.101}, {"measurement": "area with substrate EKLYFQS", "value": 0.122}, {"measurement": "area with substrate ELLYFQS", "value": 0.107}, {"measurement": "area with substrate EMLYFQS", "value": 0.149}, {"measurement": "area with substrate EPLYFQS", "value": 0.166}, {"measurement": "area with substrate EQLYFQS", "value": 0.163}, {"measurement": "area with substrate ERLYFQS", "value": 0.135}, {"measurement": "area with substrate ESLYFQS", "value": 0.15}, {"measurement": "area with substrate EVLYFQS", "value": 0.14}, {"measurement": "area with substrate EWLYFQS", "value": 0.157}, {"measurement": "area with substrate EYLYFQS", "value": 0.136}]}]}
